Common to all, as to assay: peptide or protein array; HuProt Human Proteome Microarray v2.0, full-length human proteins spotted in duplicate; V5-tagged TRPV4 protein in solution at 1 μM, 1 h at 4 °C, 150 mM NaCl, 2.7 mM KCl, 25 mM Trizma base, 0.05% Tween-20, pH 7.4; detected with Alexa Fluor 647 anti-V5; hit: z-score >= 2 (N terminus: both of 2 slides; ARD constructs: at least 2 of 3 slides); both purified

One assay has as its target T1, PKD2L2 (human) (UniProt Q9NZM6).
T1 sequence: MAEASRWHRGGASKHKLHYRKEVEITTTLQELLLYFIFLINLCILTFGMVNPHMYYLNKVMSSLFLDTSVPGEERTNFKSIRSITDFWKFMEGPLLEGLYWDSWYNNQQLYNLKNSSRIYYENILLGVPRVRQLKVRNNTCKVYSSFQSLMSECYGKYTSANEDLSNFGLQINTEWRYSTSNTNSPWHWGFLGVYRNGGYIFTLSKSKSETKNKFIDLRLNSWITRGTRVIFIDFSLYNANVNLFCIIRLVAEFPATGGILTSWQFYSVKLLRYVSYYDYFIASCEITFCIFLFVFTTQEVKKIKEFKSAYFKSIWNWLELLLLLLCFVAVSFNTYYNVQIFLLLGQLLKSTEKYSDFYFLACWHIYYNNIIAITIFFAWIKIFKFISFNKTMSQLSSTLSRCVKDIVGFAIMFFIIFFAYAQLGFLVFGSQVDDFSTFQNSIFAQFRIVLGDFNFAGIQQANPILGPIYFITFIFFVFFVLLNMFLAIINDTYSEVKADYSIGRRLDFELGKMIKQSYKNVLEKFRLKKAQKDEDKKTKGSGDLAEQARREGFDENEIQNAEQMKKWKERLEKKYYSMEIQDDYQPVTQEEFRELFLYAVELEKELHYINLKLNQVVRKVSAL

In assay [1] the target is T2, OTUB2 (on the HuProt array) (human) (UniProt Q96DC9).
T2 sequence: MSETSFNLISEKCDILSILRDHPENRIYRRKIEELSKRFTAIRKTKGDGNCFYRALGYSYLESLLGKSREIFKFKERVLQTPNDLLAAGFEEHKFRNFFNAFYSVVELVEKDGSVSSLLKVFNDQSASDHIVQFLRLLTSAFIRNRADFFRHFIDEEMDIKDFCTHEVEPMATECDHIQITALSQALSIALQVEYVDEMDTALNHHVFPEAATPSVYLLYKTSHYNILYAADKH

Assay [2] addresses T3, Dystrobrevin alpha (human) (UniProt Q9Y4J8).
T3 sequence: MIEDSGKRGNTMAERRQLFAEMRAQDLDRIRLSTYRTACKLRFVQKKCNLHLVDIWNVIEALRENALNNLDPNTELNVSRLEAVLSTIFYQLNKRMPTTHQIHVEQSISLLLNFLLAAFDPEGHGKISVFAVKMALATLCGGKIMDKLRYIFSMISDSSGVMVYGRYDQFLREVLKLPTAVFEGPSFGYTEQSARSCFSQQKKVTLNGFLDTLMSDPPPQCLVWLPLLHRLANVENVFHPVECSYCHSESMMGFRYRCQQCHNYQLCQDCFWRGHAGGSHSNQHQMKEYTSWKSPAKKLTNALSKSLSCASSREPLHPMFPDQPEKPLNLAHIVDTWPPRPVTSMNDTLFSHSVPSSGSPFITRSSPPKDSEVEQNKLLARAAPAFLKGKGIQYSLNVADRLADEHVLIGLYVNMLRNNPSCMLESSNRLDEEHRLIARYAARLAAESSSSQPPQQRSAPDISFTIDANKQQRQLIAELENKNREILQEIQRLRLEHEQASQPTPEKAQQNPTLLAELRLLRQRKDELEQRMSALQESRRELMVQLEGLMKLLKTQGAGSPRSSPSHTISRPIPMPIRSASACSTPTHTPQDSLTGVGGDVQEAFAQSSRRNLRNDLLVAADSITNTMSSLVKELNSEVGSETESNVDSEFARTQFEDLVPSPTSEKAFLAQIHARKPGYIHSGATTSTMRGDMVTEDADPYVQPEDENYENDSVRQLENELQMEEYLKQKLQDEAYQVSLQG

We go through one substance from PMC12796746.

No constants are given. Whether binding was seen depends on the method and setting. Some entries that bind do so weakly or less than the wild type.

Take “TRPV4^WT-ARD (amino acids 149-397) (from UniProt Q9HBA0 149-397) (domain or fragment)”: the binding entry with PKD2L2 (human) was “no binding (tested: 1 μM)”; in assay [1], “no binding (tested: 1 μM)”; in assay [2] it was “binds”.
